Assay results published in PubChem BioAssay AID652104 (National Center for Advancing Translational Sciences (NCATS), 2013).
Screen size: about 410,000 compounds; about 7,200 (1.8%) were called active. Inconclusive means that the source gave no clear call. Such entries were picked first, then a sample of the others. Calls follow the shape of the dose curve; as a rule, active = well fitted activation curve with a large enough effect; inconclusive = small, poorly fitted or top-dose-only effect, or another doubt; inactive = no such curve, though single readings can be large or run the other way. No potency is given beside an inconclusive call; the fits are too rough.

Experiment: qHTS of TDP-43 Inhibitors; also: nearly all actives have a fitted effect of over 50% in size; as to growth rescue (activation): % of control where 0% means no effect
Conditions: TDP-43 expressing yeast growth rescue, BacTiter-Glo, 24 h; growth rescue (activation): at 46.1 µM (top of the series) unless noted
How it was run: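 Luminescence from BacTiter-Glo reports growth of TDP-43-expressing yeast after 24 hr at 30 deg C with compound. Cells were raffinose-pregrown to mid-log, then seeded in galactose medium at OD600=0.02.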
Potency is read from the fitted curve at half-maximal effect; tags tell the direction and shape of the fitted curve.

| SMILES | Potency | growth rescue (activation) |
| --- | --- | --- |
| CC1(C)Cc2c(cnn2-c2ccc(F)cc2)C(NC(=O)C2=NNC(=O)CC2)C1 (stereo not drawn) | inconclusive [activator, single point] | – |
| O=C(c1cc(COc2ccc(F)cc2F)on1)N1CC[C@@H]2CCCC[C@H]2C1 | inconclusive [activator, partial curve] | – |
| Cn1nc(-c2ccccc2)c(N2CCCCC2)cc1=O | inconclusive [activator, single point] | – |
| Cc1ccc(N2C(=O)C3C4C=CC(CNC(=S)N5CCN(c6cccc(C)c6)C(C)C5)(O4)C3C2=O)cc1 (stereo not drawn) | inconclusive [activator, single point] | – |
| COc1ccccc1NC(=O)C1=C(C)Nc2nc(-c3ccco3)nn2C1c1cccc(C)c1 (stereo not drawn) | inconclusive [activator, single point] | – |
| CN(C)c1nc(N(C)C)c2cnn(C)c2n1 | inconclusive [activator, partial curve] | – |
| CCC(=O)Nc1ccc(C)cc1-c1nc2ccccc2n(CC(=O)c2ccc(C)cc2)c1=O | inactive | – |
| COc1ccc(CN2CCCN(CC(=O)Nc3cc(C)ccc3C)S2(=O)=O)cc1 | inconclusive [activator, single point] | – |
| CCOC(=O)c1sc(N2C(=O)c3oc4cc(C)c(C)cc4c(=O)c3C2c2ccc(C)cc2)nc1C (stereo not drawn) | inactive | – |
| O=C(Nc1ccccc1Cl)c1ccc(F)c(S(=O)(=O)NCc2ccc(Cl)c(Cl)c2)c1 | inconclusive [activator, single point] | – |
| CCC(=O)Nc1ccccc1-c1nc2ccccc2n(Cc2cccc(Br)c2)c1=O | inactive | – |
| Cc1c(C=O)c2ccccn2c1C(=O)c1ccc(F)cc1 | inactive | – |
| Cc1sc2nc(CN3CCOCC3)[nH]c(=S)c2c1C | inconclusive [activator, partial curve] | – |
| CN(C)c1cc(-c2ccc(Cl)cc2)oc(=O)c1Cl | inconclusive [activator, single point] | – |
| Cn1cc(S(=O)(=O)NC[C@H]2O[C@@H](n3cnc4c(N)ncnc43)[C@H](O)[C@@H]2O)cn1 | inconclusive [activator, full curve, poor fit] | – |
| COc1ccc(C(=O)c2cnc3cc4c(cc3c2C)OCO4)cc1 | inconclusive [activator, partial curve] | – |
| COc1ccc(C2CC2/C(=N/OC(=O)c2cccs2)c2ccccc2)cc1 (stereo not drawn) | inconclusive [activator, partial curve] | – |
| Cc1ccc(-c2nc(N)sc2-c2ccc(C)cc2)cc1 | inconclusive [activator, single point] | – |
| Cn1c(C(=O)O)c(CC(=O)N2CCC(Cc3ccccc3)CC2)c2ccccc21 | inconclusive [activator, single point] | – |
| COC(=O)c1ccc2[nH]ccc2c1 | inconclusive [activator, full curve, poor fit] | – |
| CC(C)[C@H](NC(=O)c1ccccc1Cl)C(=O)OCC(=O)NC(=O)NC1CCCC1 | inactive | – |
| Cc1ccc(-n2ncc3c(N4CCCCC4)ncnc32)cc1Cl | inconclusive [activator, partial curve] | – |
| Cc1onc(-c2ccccc2)c1C(=O)NC(=S)NNC(=O)c1ccc(O)cc1 | inconclusive [activator, partial curve, poor fit] | – |

| SMILES | Potency | growth rescue (activation) |
| --- | --- | --- |
| CCc1ccc2oc(C(=O)NCC(c3ccc(Cl)cc3)N3CCOCC3)c(C)c2c1 (stereo not drawn) | inconclusive [activator, full curve] | – |
| CCOC(=O)c1c(NC(=S)Nc2cccnc2)sc(C)c1C | active: 12.6 µM | – |
| COc1cc(C#Cc2c(-c3cncn3C)n(C)c3ccc(-c4cnc(OC)nc4)cc23)cc(OC)c1 | active: 11.2 µM | – |
| c1coc(CN(Cc2cccs2)Cc2nnnn2C2CCCCC2)c1 | inconclusive [activator, single point] | – |
| Cc1cc(C)c2c(=O)cc(C(=O)Nc3ccc(C)c(Cl)c3)oc2c1 | inconclusive [activator, partial curve] | – |
| COc1cccc(N2CCN(C(=O)c3oc4ccccc4c3NC(=O)CCc3cc(OC)no3)CC2)c1 | inconclusive [activator, single point] | – |
| O=[N+]([O-])c1ncccc1OCc1ccccc1Br | inconclusive [activator, single point] | – |
| CCc1ccc(C2=CC(c3cccc(C)c3)n3c(nc4ccccc43)N2)cc1 (stereo not drawn) | active: 12.6 µM | – |
| CC(C)N(Cc1ccccc1)C(=O)COc1ccccc1 | inconclusive [activator, partial curve, poor fit] | – |
| CC(=O)n1cc(C(C[N+](=O)[O-])SCCN)c2ccccc21 (stereo not drawn) | – | inconclusive: -92.1% [activator] |
| COc1cc(NC(=O)c2cc3cccc(OC)c3o2)cc(C(=O)Nc2cccc(C(F)(F)F)c2)c1 | inactive | – |
| CC1=C(C(=O)OC2CCCC2)C(c2ccc(C)o2)C2=C(CC(c3cccs3)CC2=O)N1 (stereo not drawn) | inconclusive [activator, single point] | – |
| CC(C)c1ccc(C(=O)NN2CCOCC2)cc1 | inactive | – |
| CCC(=O)Nc1ccc2c(c1)Cc1cc([N+](=O)[O-])ccc1-2 | inactive | – |
| O=C(CCNC(=O)c1ccccc1Cl)N/N=C\c1ccc(O)cc1 | inconclusive [activator, single point] | – |
| NC(=O)c1ccc(-c2ccc(Br)cc2)o1 | active: 12.6 µM | – |
| CCOC(=O)CSCc1c(C#N)c2ccccc2n1C | inconclusive [activator, partial curve] | – |
| CCOC(=O)C[C@H]1c2ccc(C(F)(F)F)cc2S(=O)(=O)N1C1CCCC1 | inconclusive [activator, partial curve] | – |
| Nc1ccc(C(=O)OCC(=O)Nc2ccc([N+](=O)[O-])cc2C(F)(F)F)cc1 | inconclusive [activator, partial curve] | – |
| CC(C)N(C)c1ncnc2c1ncn2[C@H]1CN(Cc2cccnc2)C[C@@H](CO)O1 | inactive | – |
| O=C(O)CC1(CC(=O)Nc2ccc(Br)cc2)CCCCC1 | active: 11.2 µM | – |
| COc1ccc(C(C)(O)c2nc(-c3cccc(F)c3)cs2)cc1 (stereo not drawn) | inconclusive [activator, single point] | – |
| O=C(Nc1cccc(F)c1)c1cc(S(=O)(=O)NCCC2=CCCCC2)ccc1F | inconclusive [activator, single point] | – |

| SMILES | Potency | growth rescue (activation) |
| --- | --- | --- |
| Cn1nnnc1SCCCNCc1cc(Br)ccc1OCc1ccccc1 | – | inactive: 0% [at 9.22 µM] |
| COc1cccc(C2CC(c3c(F)cccc3Cl)n3nc(N)nc3N2)c1 (stereo not drawn) | inactive | – |
| CCCCCn1c(=O)c(F)cn(Cc2ccc(OC)c([N+](=O)[O-])c2)c1=O | inconclusive [activator, single point] | – |
| Clc1ccc(-n2nnnc2-c2cnc3ccccc3c2-c2ccccc2)cc1 | inconclusive [activator, single point] | – |
| Cc1oc(-c2ccccc2Cl)nc1CS(=O)CC(=O)N1CCN(c2cccc(C(F)(F)F)c2)CC1 (stereo not drawn) | inconclusive [activator, single point] | – |
| COC(=O)c1ccc(OCC2c3cc(OC)c(OC)cc3CCN2C(=O)c2ccc(OC)cc2)cc1 (stereo not drawn) | active: 35.5 µM | – |
| C=CCC[C@@H](Cc1ccc(F)cc1)C(=O)OC[C@@H](Cc1c[nH]c2ccccc12)NC(=O)[C@H](CC=C)CC(=O)N(CCO)Cc1ccccc1 | inconclusive [activator, partial curve] | – |
| Cc1nn(CSc2c(F)c(F)c(F)c(F)c2F)c(C)c1[N+](=O)[O-] | inconclusive [activator, single point] | – |
| O=c1[nH]c(SCc2ccccc2)nc2c1CCCC2 | inconclusive [activator, partial curve] | – |
| Clc1ccc(N2COC3c4cccc5cccc(c45)C32)cc1 (stereo not drawn) | active: 10 µM | – |
| CCOc1ccc(CCNC(=O)C(CC)n2nc(C)c3c(C)n(-c4ccccc4)nc3c2=O)cc1 (stereo not drawn) | inactive | – |
| COc1ccccc1OCCNC(=O)C(=O)c1c[nH]c2ccccc12 | inconclusive [activator, single point] | – |
| O=C(/C=C/c1ccc(F)cc1)NCc1ccco1 | inconclusive [activator, partial curve] | – |
| Cc1ccc(-c2ccnc3cc(C)nn23)cc1 | active: 20 µM | – |
| CCOC(=O)c1c(C)[nH]c(C)c1S(=O)(=O)N1CCC(C(=O)NCc2ccc(F)cc2)CC1 | inactive | – |
| O=C(NCC1CCCO1)c1cc2c([nH]c3ccccc32)c(-c2cccc(Br)c2)n1 (stereo not drawn) | active: 10 µM | – |
| O=C(OCc1ccccc1F)c1cc([N+](=O)[O-])ccc1N1CCOCC1 | active: 35.5 µM | – |
| CCN(C(=O)COC(=O)c1ccc(C)c(S(=O)(=O)N2CCCCC2)c1)C1CCS(=O)(=O)C1 (stereo not drawn) | – | inconclusive: 31.4% [activator] |
| CCOc1cc(C(=O)O)ccc1OCCOc1ccccc1 | inconclusive [activator, partial curve] | – |
| CC(C)NC1=C(Cl)C(=O)c2ccccc2C1=O | inconclusive [activator, single point] | – |
| O=C(CCl)Nc1ccc(-c2ccccc2)cc1 | inconclusive [activator, single point] | – |
| COc1cc2c(cc1OC)CN(C(=O)c1ccc(-c3ccccc3)cc1)CC2 | inconclusive [activator, single point] | – |
